This is one part of the list.

The assay concerns the target T1, MBP-FoxP1dN (Mus musculus, UniProt P58462 326-579).
T1 sequence: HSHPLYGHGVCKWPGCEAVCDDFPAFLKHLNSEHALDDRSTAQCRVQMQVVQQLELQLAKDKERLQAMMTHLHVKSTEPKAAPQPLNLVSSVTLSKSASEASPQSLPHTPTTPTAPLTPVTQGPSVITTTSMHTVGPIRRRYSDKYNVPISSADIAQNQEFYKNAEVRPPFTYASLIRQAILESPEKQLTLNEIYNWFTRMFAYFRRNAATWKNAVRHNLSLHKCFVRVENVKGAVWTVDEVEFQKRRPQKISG
The assay is described as follows: PD-seq (MBP pull-down with sequencing); 20 mM Tris-HCl pH 7.5, 100 mM NaCl, 1.5 mM MgCl2, 0.4 uM protein, 0.1 uM dsDNA library, 30 min, room temperature, amylose pull-down; high values mean tight binding. The settings on record: protein: recombinant; tags: His6-MBP; chain copies: 2; dsDNA, one strand shown. A digest of the protocol:
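A degenerate double-stranded DNA library, filled in with Klenow, was added at 0.1 µM to 0.4 µM His6-MBP-tagged mouse FoxP3 or FoxP1 fragment lacking the N-terminus, expressed in E. coli. Incubation lasted 30 min at room temperature in Tris pH 7.5 buffer with NaCl and MgCl2, after which complexes were collected on amylose resin, washed three times, digested with proteinase K to free the DNA, barcoded by PCR and sequenced by Illumina. Binding is the pooled-replicate reads-per-million enrichment of pull-down over input.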
Consider “GATGATTGTTCTCCCAGCTGATGAATTGGTCACTTCGAGTAAACAAATTTTCCTAATCTTTCTGTTCAAGCGCCATCTAC”, for which the binding signal is 0.97 RPM ratio (pull-down/input).
For “GATGATTGTTCTCCCAGCTGATGAATTCCCACCCTCGAGTAAACAAATTTTCCTAATCTTTCTGTTCAAGCGCCATCTAC” the value was 0.807 RPM ratio (pull-down/input); for “GATGATTGTTCTCCCAGCTGATGAATTGGCACCGTCGAGTAAACAAATTTTCCTAATCTTTCTGTTCAAGCGCCATCTAC”, 0.835 RPM ratio (pull-down/input).
For “GATGATTGTTCTCCCAGCTGATGAATTGGTGGGTTCGAGTAAACAAATTTTCCTAATCTTTCTGTTCAAGCGCCATCTAC” the value was 0.941 RPM ratio (pull-down/input).
In the case of “GATGATTGTTCTCCCAGCTGATGAATTATACTAATCGAGTAAACAAATTTTCCTAATCTTTCTGTTCAAGCGCCATCTAC”, the binding signal is 1.25 RPM ratio (pull-down/input).
Then “GATGATTGTTCTCCCAGCTGATGAATTAAAGACGTCGAGTAAACAAATTTTCCTAATCTTTCTGTTCAAGCGCCATCTAC”, with 0.89 RPM ratio (pull-down/input); and “GATGATTGTTCTCCCAGCTGATGAATTGGAGGCATCGAGTAAACAAATTTTCCTAATCTTTCTGTTCAAGCGCCATCTAC”, with 1.1 RPM ratio (pull-down/input); and “GATGATTGTTCTCCCAGCTGATGAATTTGGATCATCGAGTAAACAAATTTTCCTAATCTTTCTGTTCAAGCGCCATCTAC”, with 0.985 RPM ratio (pull-down/input).
Take “GATGATTGTTCTCCCAGCTGATGAATTGTGGGCATCGAGTAAACAAATTTTCCTAATCTTTCTGTTCAAGCGCCATCTAC”: the binding signal was 1.12 RPM ratio (pull-down/input).
Then “GATGATTGTTCTCCCAGCTGATGAATTATTTGAATCGAGTAAACAAATTTTCCTAATCTTTCTGTTCAAGCGCCATCTAC”, with 1.11 RPM ratio (pull-down/input); and “GATGATTGTTCTCCCAGCTGATGAATTTACCCTATCGAGTAAACAAATTTTCCTAATCTTTCTGTTCAAGCGCCATCTAC”, with 1.23 RPM ratio (pull-down/input); and “GATGATTGTTCTCCCAGCTGATGAATTTATTCCATCGAGTAAACAAATTTTCCTAATCTTTCTGTTCAAGCGCCATCTAC”, with 1.16 RPM ratio (pull-down/input).
Take “GATGATTGTTCTCCCAGCTGATGAATTCTTAAGCTCGAGTAAACAAATTTTCCTAATCTTTCTGTTCAAGCGCCATCTAC”: the binding signal was 0.801 RPM ratio (pull-down/input).
As for “GATGATTGTTCTCCCAGCTGATGAATTGATAATATCGAGTAAACAAATTTTCCTAATCTTTCTGTTCAAGCGCCATCTAC”, the binding signal was 1.52 RPM ratio (pull-down/input).
For “GATGATTGTTCTCCCAGCTGATGAATTCCACTTCTCGAGTAAACAAATTTTCCTAATCTTTCTGTTCAAGCGCCATCTAC” the value was 0.849 RPM ratio (pull-down/input).
Regarding “GATGATTGTTCTCCCAGCTGATGAATTATCAAGATCGAGTAAACAAATTTTCCTAATCTTTCTGTTCAAGCGCCATCTAC”, the binding signal is 0.955 RPM ratio (pull-down/input).
Consider “GATGATTGTTCTCCCAGCTGATGAATTCGACGTGTCGAGTAAACAAATTTTCCTAATCTTTCTGTTCAAGCGCCATCTAC”, for which the binding signal was 0.839 RPM ratio (pull-down/input).
Then “GATGATTGTTCTCCCAGCTGATGAATTGCTCAAATCGAGTAAACAAATTTTCCTAATCTTTCTGTTCAAGCGCCATCTAC”, with 1.09 RPM ratio (pull-down/input).

(Values after article PMC12820563, “FoxP3 forms a head-to-head dimer in vivo and stabilizes its multimerization on adjacent microsatellites”.)
